Assay results from PubChem BioAssay AID488969 (Vanderbilt High Throughput Screening Facility, 2010).
In all, about 110,000 compounds were measured (“z-score”: median about -0.1, highest 2% from about 2 on). The list shows a part of the results. The source made the active and inactive calls.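 How the source made its calls: active means z-score in the third read window above 3 or below -3; inactive means the rest.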

Each compound was assayed against Metabotropic glutamate receptor 8 (Rattus norvegicus) (UniProt P70579) (assay: rat mGluR8 modulators via GIRK flux, primary screen, cell-based, thallium flux, HTS (AID 488969)). Conditions: HEK293 rat mGluR8, GIRK (G protein-gated inwardly rectifying potassium channel) thallium flux, FluoZin2; at 10 µM; stronger effect = higher value; submaximal glutamate (EC20) added with thallium.
Sequence of UniProt P70579 (P70579 whole entry, looked up): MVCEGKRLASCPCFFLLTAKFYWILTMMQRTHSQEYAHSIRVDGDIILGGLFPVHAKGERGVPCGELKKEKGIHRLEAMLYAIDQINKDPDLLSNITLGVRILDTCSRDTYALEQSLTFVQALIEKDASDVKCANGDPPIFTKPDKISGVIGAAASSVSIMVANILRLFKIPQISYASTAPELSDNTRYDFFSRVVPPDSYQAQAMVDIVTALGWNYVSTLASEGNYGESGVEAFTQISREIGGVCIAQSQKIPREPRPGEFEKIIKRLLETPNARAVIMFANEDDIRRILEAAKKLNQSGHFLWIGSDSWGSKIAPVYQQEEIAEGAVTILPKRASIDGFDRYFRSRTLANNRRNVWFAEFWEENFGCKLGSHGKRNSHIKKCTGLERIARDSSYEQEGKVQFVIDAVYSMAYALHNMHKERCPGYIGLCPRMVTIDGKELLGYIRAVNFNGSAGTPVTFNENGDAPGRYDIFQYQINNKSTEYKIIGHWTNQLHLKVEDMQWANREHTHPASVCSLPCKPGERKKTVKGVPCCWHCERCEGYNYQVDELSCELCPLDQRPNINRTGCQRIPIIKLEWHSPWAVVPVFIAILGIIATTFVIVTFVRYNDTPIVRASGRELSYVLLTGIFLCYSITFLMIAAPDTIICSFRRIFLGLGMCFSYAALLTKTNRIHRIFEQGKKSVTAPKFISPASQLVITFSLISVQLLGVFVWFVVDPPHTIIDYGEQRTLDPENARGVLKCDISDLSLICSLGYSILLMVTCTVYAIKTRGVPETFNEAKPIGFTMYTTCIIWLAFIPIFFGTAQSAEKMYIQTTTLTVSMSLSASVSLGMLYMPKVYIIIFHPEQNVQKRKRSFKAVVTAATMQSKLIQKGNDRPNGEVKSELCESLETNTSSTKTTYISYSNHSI

SMILES | z-score
COc1ccc(C)cc1NC(=O)CN1C(=O)c2cccc3cccc1c23 | -0.0263
CCOc1ccc(S(=O)(=O)Nc2cc(OC)ccc2OC)cc1 | -0.0111
COc1cc(OC)cc(C(=O)NN2CCCCC2)c1 | -0.128
O=C(CN1CCN(c2cccc(Cl)c2)CC1)Nc1ccc([N+](=O)[O-])cc1C(=O)Nc1ccccc1F | -0.0569
Cc1ccc(N=C2CCCCCN2C)c(C#N)c1 | 0.507
COC(=O)c1[nH]c2ccc(Cl)cc2c1NC(=O)Oc1ccccc1 | -0.211
Cc1cc(C)c2c(n1)sc1c(O)cc(=O)[nH]c12 | -1.2
CCc1ccc(OCC(=O)N/N=C/c2cc([N+](=O)[O-])ccc2N2CCOCC2)cc1 | 0.198
CC(C)c1ccccc1NC(=O)COc1ccc2c(=O)c(Oc3ccc4ccccc4c3)coc2c1 | -0.285
CCCCCNC(=O)CCn1c(=O)oc2ccccc21 | -0.371
O=C(Nc1cccc2c1CCCC2)c1ccco1 | 0.256
CC(C)(CNC(=O)C1CCCC1)CNC(=O)C1CCCC1 | 1.5
O=C(COc1ccc(F)cc1Br)NCc1ccccn1 | -0.474
O=c1c2cc(F)ccc2[nH]c(=S)n1CCCN1CCOCC1 | active: 3.11
CCOC(=O)C1=C(O)C(=O)N(c2ccc(S(N)(=O)=O)cc2)C1c1ccc(OC)cc1 (centres undefined) | -0.258
Cc1cccc(NC(=O)CSc2ccc(-c3ccc4c(c3)OCO4)nn2)c1C | -0.129
Cc1cccc(NC(=O)c2nc[nH]c2C(=O)Nc2ccccc2[N+](=O)[O-])c1 | -0.274
CCOc1ccc(N2C(=O)/C(=C/c3cc(OC)c(OC)c(OC)c3)N(CC(=O)OC)C2=S)cc1 | active: 14.1
Cc1cc(CN(C)C)c(O)c(C2(C)CCCCC2)c1 | 0.411
CCOC(=O)c1c2ccc(OCC(=O)N/N=C/c3ccc(Cl)cc3)cc2n2ccccc12 | -0.577
O=C(NNS(=O)(=O)c1ccccc1)C(O)(c1ccccc1)c1ccccc1 | -0.446
Cc1ccc(NC(=O)C2CCN(S(C)(=O)=O)CC2)cc1 | -0.133

SMILES | z-score
Cc1ccc(C(CC(=O)O)C2CCOC(C)(C)C2)cc1 (centres undefined) | 0.72
O=C(Nc1ccccc1)Nc1nnc(SCc2ccc(Cl)cc2)s1 | -0.2
CCOC(=O)C(NCCc1ccccc1F)(NC(=O)CC)C(F)(F)F (centres undefined) | -0.0418
Cc1ccc(S(=O)(=O)N2CCOCC2)cc1C(=O)Nc1ccccn1 | -0.302
O=C(Nc1ccc(F)cc1)C(c1ccccc1)N1CCN(S(=O)(=O)c2ccccc2)CC1 (centres undefined) | -0.768
COc1cccc(C2=CC(c3cccs3)n3nnnc3N2)c1 (centres undefined) | -0.738
CCCCC(=O)Nc1nc2ccc3nc(C)sc3c2s1 | -0.125
CSc1nnc(-c2cnccn2)n1C | 0.516
Cc1c(S(=O)(=O)Nc2cc(Cl)ccc2Cl)c(=O)n(C)c(=O)n1C | -0.406
Cc1nc(SCc2c(F)cccc2Cl)c2c(=O)n(C)c(=O)n(C)c2n1 | -0.142
N#C/C(=C/c1cn(-c2ccccc2)nc1-c1cccc(OCc2ccc(F)cc2)c1)C(=O)NCCCn1ccnc1 | -0.142
O=C(CC1Sc2ccccc2NC1=O)c1ccc(Br)cc1 (centres undefined) | -0.787
CC(=O)/C=C1/SC(CC(=O)O)C(=O)N1c1ccccc1 (centres undefined) | -0.0454
CC1CCN(CCC(=O)N2CCCc3c2c(=O)oc2ccc(O)cc32)CC1 | -0.623
O=C(Nc1ccc2c(c1)OCO2)N1CCN(c2ncc(C(F)(F)F)cc2Cl)CC1 | -0.421
Nc1cc(C(=O)OCC(=O)NCc2ccc(F)cc2)ccc1Cl | -0.321
CCN(CC)CCN1C(=O)C(=O)/C(=C(/O)c2ccc(F)cc2)C1c1ccncc1 (centres undefined) | -0.212
COc1ccc2oc(=O)c(C(=O)NCc3ccccn3)cc2c1 | -0.00183
O=S1(=O)CCC(S(=O)(=O)N2CCCCCC2)C1 (centres undefined) | -0.216
COc1cc(C(=O)N(Cc2ccc(F)cc2)C2CCS(=O)(=O)C2)cc(OC)c1OC (centres undefined) | -0.194
O=S(=O)(c1ccc(Cl)s1)N1CCN(c2ncccn2)CC1 | 0.108
CN(C(=S)NC1CCCCC1)C1(c2ccccc2Cl)CCCCC1=O (centres undefined) | -0.416

SMILES | z-score
CC(=O)Nc1cnn(Cc2ccc(Br)cc2)c1 | 0.329
CCOc1ccccc1/C=N/NC(=O)CNC(=O)c1ccc(S(=O)(=O)N2CCOCC2)cc1 | -0.36
CCCOc1ccc(OCCOCCNCc2ccccc2)cc1 | -0.863
COc1ccc2c(c1)[nH]c1c(Cl)ncnc12 | -0.17
CCc1ccccc1S(=O)(=O)Cc1ccc(C(=O)NCC2CCCO2)o1 (centres undefined) | -0.152
CCCCNC(=O)c1cc2nc3c(c(C(F)(F)F)n2n1)CCc1ccccc1-3 | -0.114
Cc1cc(C)c(C)c(C(=O)CSc2nnc(-c3ccc4[nH]c(C)c(C)c4c3)o2)c1C | 0.13
CCOC(=O)C1=C(CSc2nc3ccccc3s2)NC(=O)NC1c1cccc([N+](=O)[O-])c1 (centres undefined) | 0.469
CC(=O)Nc1ccc(S(=O)(=O)N2CCN(CC(O)COc3ccc4ccccc4c3)CC2)cc1 (centres undefined) | 0.0161
CC(C)NC(=S)NC(=O)c1ccc(-c2ccccc2)cc1 | 0.201
Cc1ccnc(SCc2nc3ccccc3s2)n1 | -0.138
CC1(C)NC(=O)N(CCCCOc2ccc3ccccc3c2Cl)C1=O | -0.0111
Nc1c(Br)cc2oc(-c3ccccc3)nc2c1Br | -0.3
COc1cc2c(cc1NC(=O)Cn1cnc3c1c(=O)n(C)c(=O)n3C)oc1ccccc12 | 0.238
O=C(NC1CCCC1)C(c1ccccc1)N(C(=O)c1ccno1)c1ccccc1 (centres undefined) | 0.315
COc1cc(OC)cc(C(=O)Nc2ccc3c(c2)COC3=O)c1 | -0.438
COCCCNC(=O)CC(NS(=O)(=O)c1ccc(C)cc1)c1ccc(OC)cc1 (centres undefined) | -0.0343
COCC(=O)Nc1ccc(S(=O)(=O)Nc2ncccn2)cc1 | 0.0612
CC(=O)NC(Cc1cc(C)ccc1C)C(=O)N1CCN(C(=O)Nc2ccc(C(C)=O)cc2)CC1 (centres undefined) | 0.0589
COc1cc2c(cc1NC(=O)c1cncc(Br)c1)oc1ccccc12 | -0.346
Clc1ccc(C2=Nn3c(nnc3-c3cc(-c4ccccc4)n[nH]3)SC2)cc1 | 0.0273
O=c1[nH]c(-c2cccs2)nc2ccccc12 | 0.785

SMILES | z-score
CN(CCCNC(=O)CN1C(=O)CC(C)(C)S(=O)(=O)c2ccccc21)C1CCCCC1 | 0.909
O=C(c1nc2ccccc2s1)N1CCN(c2ccccn2)CC1 | -0.688
O=C(CC1(O)C(=O)N(Cc2ccccc2)c2ccccc21)c1ccc2c(c1)OCO2 (centres undefined) | -0.631
Cc1nc2ccccc2c(=O)n1/N=C/c1c(O)ccc2oc3c(c12)CCCC3 | -0.0316
COc1cccc(NC(=O)CCN2CCN(c3ccccc3F)CC2)c1 | -0.497
Cc1nc(-c2ccccn2)sc1C(=O)Nc1ccc(F)cc1F | 0.00231
Cc1cccc(N2CCN(Cc3c(C)n(C)n(-c4ccccc4)c3=O)CC2)c1C | -0.00194
CCC(=O)N(Cc1ccco1)c1nc(-c2ccc(OC)cc2)cs1 | 1.16
COCCN1C(=O)C(=O)/C(=C(/O)c2ccc(OC(C)C)cc2)C1c1cccnc1 (centres undefined) | 0.0366
O=C(NCc1ccco1)c1ccc2c(c1)N(Cc1ccccc1)C(=O)CS2 | -1.3
CC(=C1C2C=CC1C1C(=O)NC(=O)C21)c1ccccc1 (centres undefined) | 0.0886
Cc1ccc(N/N=C/c2ccc(N3CCOCC3)cc2)cc1C | -0.121
COc1cc(S(=O)(=O)n2ccc(C)n2)c(OC)cc1Cl | -0.287
O=C(C1CCCCN1S(=O)(=O)c1ccccc1)N1CCN(Cc2ccccc2)CC1 (centres undefined) | 0.131
Cc1ccc2cccc(S(=O)(=O)n3nc(C)cc3C)c2n1 | -0.0908
Cc1cc(C(F)(F)F)n2nc(-c3sccc3-n3cccc3)cc2n1 | -0.0777
COc1cc2c(cc1OC)-c1cc(NC3CCCC3)nc(=O)n1CC2 | -0.576
O=C(Nc1ccccc1N1CCOCC1)C1Cc2ccccc2CN1C(=O)c1ccco1 (centres undefined) | 0.439
Cc1ccc(Nc2cc(C)nc3c(C)ccc([N+](=O)[O-])c23)cc1 | -0.0986
CCOC(=O)c1cn(CC)c2ccc(S(=O)(=O)N3CC(C)CC(C)C3)cc2c1=O (centres undefined) | -0.315
CCOC(=O)Cn1nnnc1C(CC)N(Cc1cc2ccc(C)cc2[nH]c1=O)C1CCCC1 (centres undefined) | -1.12
O=C(CCc1ccccc1)N/N=C/c1cc(Br)ccc1O | 0.124

SMILES | z-score
Cc1cc(Br)ccc1NC(=O)C1CCCO1 (centres undefined) | -0.602
CN(CCc1ccccn1)S(=O)(=O)c1ccccc1F | 0.185
CCOC(=O)N1CCC(c2nc(C)sc2C(=O)O)CC1 | -0.00744
Cc1ccc(-c2nnc(SCC(=O)NC(=O)Nc3ccc(C)cc3C)n2N)cc1 | -0.349
Cc1cnn(C(=S)NCc2ccc(Cl)cc2)c1 | 0.235
O=S(=O)(Cc1nc2ccccc2s1)c1ccccc1 | 0.0223
CC(CNC(=O)C(=O)NC(C)CCc1ccccc1)Cc1ccccc1 (centres undefined) | -0.494
Cc1onc(-c2c(F)cccc2Cl)c1C(=O)Nc1ccc(S(=O)(=O)Nc2ncccn2)cc1 | 0.0721
C(#Cc1ccccc1)CN1CCN(c2ccccn2)CC1 | 0.755
Cc1nc(-c2ccccn2)sc1C(=O)Nc1ccc(Cl)c(Cl)c1 | -0.00279
COc1cc(C(=O)NNC2=NC(C)(C)Cc3cc(C)c(C)cc32)cc(OC)c1OC | -0.205
CC(C(=O)NCC1(c2ccccc2)CCCC1)N1CCCC1 (centres undefined) | 0.127
CCOC(=O)C1=C(C)Nc2nc(SCC(=O)OC)nn2C1c1cc(F)cc(F)c1 (centres undefined) | -0.384
CCCn1c(Sc2nc3c(c(=O)[nH]c(=O)n3C)n2CCC)nc2c1c(=O)[nH]c(=O)n2C | -0.671
CCOC(=O)c1c(C)n(C)c2ccc(OC(=O)c3ccc(N4C(=O)CCC4=O)cc3)cc12 | 0.145
COC(=O)C1=C(Nc2ccc(C)cc2)C=C(C)C(C(=O)OC)C1c1ccc(OC)cc1 (centres undefined) | -0.0105
N#CC1=C(N)SC(C(=O)c2ccccc2)C1c1cccs1 (centres undefined) | -0.43
C/C(=N\NC(=O)c1c(Br)c(C)nn1C)c1cccc(NC(=O)C2CCC2)c1 | -1.59
N#Cc1ccc(-c2csc(NC(=O)/C=C/c3cccs3)n2)cc1 | -0.212
Cc1ccc(C(=O)NC2(C(F)(F)F)N=C3SCCN3C2=O)cc1 (centres undefined) | 2.91
Cc1ccc2ccccc2[n+]1CCCS(=O)(=O)[O-] | 1.29
